# Values joined by “and” are separate entries in the source; they are usually repeats but may differ in a detail not shown here. Equal values may be shown once. Hit rate of the full screen: of about 210,000 compounds, about 5,900 (2.8%) were called active. The shares of active, inactive and inconclusive entries below differ from those in the screen. Calls follow the shape of the dose curve; as a rule, active = well fitted activation curve with a large enough effect; inconclusive = small, poorly fitted or top-dose-only effect; inactive = no such curve, though single readings can be large or run the other way. Potencies beside an inconclusive call are fits to weak or partial responses and may not hold up.
# Test: qHTS Assay for Enhancers of SMN2 Splice Variant Expression; also: nearly all actives have a fitted effect of over 55% in size; as to activity change, positive = activation: % of control where 0% means no effect
# Conditions: HEK293 SMN2-luciferase splicing reporter, luminescence, 30-36 h; activity change, positive = activation: at 46.1 µM (top of the series)
# How it was run: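 HEK293 cells carry an SMN2 […]–luciferase reporter in which exon 7 inclusion puts luciferase in frame. Cells were plated 10-12 h before compound addition, then incubated 30-36 h at 37C. ONE-Glo luminescence was read; sodium butyrate at 4.5 mM final served as control.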
# Potency is read from the fitted curve at half-maximal effect; tags tell the direction and shape of the fitted curve.
SMILES,Potency,"activity change, positive = activation"
C/C(=N\NC(=O)c1ccc(Br)cc1)c1cccc(NC(=O)c2cccnc2)c1,"inconclusive: 17.8 µM [activator, partial curve]",–
O=C(CSc1cccc[n+]1[O-])c1ccc(-c2ccccc2)cc1,active: 12.6 µM,–
O=C(Nc1ccc(-c2nc3ncccc3o2)cc1)c1ccco1,"inconclusive: 22.4 µM [activator, single point]",–
CN(C)c1ccnc2sc3c(=O)n(Cc4ccccc4)cnc3c12,–,inactive: -24%
O=C(CCCC(=O)N(CC(=O)NC1CCCCC1)Cc1ccc2c(c1)OCO2)Nc1ccccn1,"inconclusive: 11.2 µM [activator, single point]",–
CCC(=O)Nc1ccc(Oc2ccc3c(c2)C(=O)NC3=O)cc1,"inconclusive: 0.141 µM [activator, full curve, poor fit]",–
Cc1ccccc1N=CC1=C(O)c2ccccc2C1=O,active: 8.91 µM,–
O=C(Nc1ccc(N2CCCC2)cc1)c1ccc(Br)o1,"inconclusive: 31.6 µM [activator, single point]",–
COc1ccc(CC(=O)NCc2cccs2)cc1,"inconclusive: 3.16 µM [activator, partial curve]",–
Cc1ccc(C(=O)Nc2nc(C)c(C(=O)Nc3ccc4c(c3)CCC4)s2)cc1,active: 5.62 µM,–
Cc1ccc(NC(=O)c2cc(-c3ccc(C)o3)nc3ccccc23)cc1,–,inactive: 10.4%
Nc1ccc2nc(N3CCOCC3)sc2c1,active: 15.8 µM,–
Nc1cc(=O)nc(SCC(=O)Nc2cccc(Cl)c2)n1CCc1ccccc1,–,inactive: -4.38%
CCN(CC)C(=O)c1sc(NC(=O)C(C)Sc2nc(-c3ccccc3)cc(C(F)(F)F)n2)c(C(=O)OC)c1C (centres undefined),–,inactive: -25.2%
O=C(CNS(=O)(=O)/C=C/c1ccccc1)OC1CCOC1=O (centres undefined),–,inactive: 9.32%
COC(CNC(=O)CNC(=S)N(Cc1ccccc1)Cc1cccnc1)OC,–,inactive: 2.08%
COC(=O)c1ccc(NCC(=O)c2ccccc2)cc1,"inconclusive: 22.4 µM [activator, single point]",–
Cc1ccc(OCCN2C(=O)C(=O)c3cccc(C)c32)cc1,–,inactive: -4.44%
COc1cc(/C=C2\S/C(=N/S(=O)(=O)c3ccccc3)NC2=O)c([N+](=O)[O-])cc1OC,"inconclusive: 35.5 µM [activator, single point]",–
COC(=O)N1CCC2(CCCN(Cc3nccs3)C2)CC1,–,inactive: -29%
Cc1cc(C)nc(N/N=C/c2cccc(Cl)c2)n1,"inconclusive: 31.6 µM [activator, single point]",–
CC(C)CCOc1ccc(C(=O)C[N+]2(C)CCOCC2)cc1,"inconclusive: 1.41 µM [activator, full curve, poor fit]",–
CC1CCN(C(=O)c2cc3ccccc3o2)CC1,"inconclusive: 17.8 µM [activator, partial curve, poor fit]",–
Cc1cc(N2CCOCC2)nc2ccccc12,"inconclusive: 12.6 µM [activator, partial curve]",–
O=C(COc1ccccc1)NCC(=O)Nc1cccc(S(=O)(=O)NC2=NCCC2)c1,–,inactive: 6.04%
Cc1cc(C)n2nc(C(=O)Nc3ccc4c(c3)CCC4)nc2n1,active: 11.2 µM,–
O=C(CCCn1ncn2c(cc3occc32)c1=O)N1CCc2ccccc2C1,"inconclusive: 3.55 µM [activator, single point]",–

SMILES,Potency,"activity change, positive = activation"
O=C(Nc1nc(SCc2ccc(F)cc2)ns1)c1ccco1,active: 17.8 µM,–
COc1cc2ncc(-c3ccccc3)nc2cc1OC,active: 15.8 µM and active: 28.2 µM,–
Cc1c(NC(=O)c2ccc(Cl)cc2)cc(C(C)C)c(O)c1S(=O)(=O)c1ccc(Cl)cc1,"inconclusive: 14.1 µM [activator, partial curve]",–
CC(=O)N/N=C/c1c(C)[nH]n(-c2ccccc2)c1=O,–,inactive: -23%
CSc1ncc2c(n1)-c1cc(C)ccc1SC2,–,inactive: -10.6%
CC(C)(C)NC(=O)Cn1c(Cl)nc2ccccc21,–,inactive: -10%
C/C(CC(=O)Nc1ccc(N(C)C)cc1)=N\NC(=O)c1ccc([N+](=O)[O-])cc1Cl,–,inactive: 9.1%
Oc1ccc(C=Nc2ccccc2-c2nc3ccccc3[nH]2)cc1,active: 12.6 µM,–
Cc1ccccc1OCc1nc(-c2ccccc2)no1,active: 31.6 µM,–
Cc1ccc(/C=C/C(=O)c2nc3ccccc3[nH]2)cc1,"inconclusive: 1.58 µM [activator, partial curve]",–
Nc1ccc(-c2cc(-c3cccc(N)c3)nc(-c3ccccc3)n2)cc1,–,inactive: -8.92%
Cn1c(=O)c2c(nc(NCc3ccccc3)n2CCCc2ccccc2)n(C)c1=O,–,inactive: 9.99%
Cc1ccc(C(=O)Nc2nnc(C)s2)cc1,active: 14.1 µM,–
CC(=O)Nc1ccc(NC(=O)CNS(=O)(=O)c2ccc(C)cc2)cc1,"inconclusive: 31.6 µM [activator, single point]",–
Cc1ccccc1Cn1c(=O)n(CCc2ccccc2)c(=O)c2c(C)c(C)sc21,–,inactive: 8.29%
COC(=O)c1cc(-c2c(C)nn(-c3ccccc3)c2C)n[nH]1,"inconclusive: 7.08 µM [activator, full curve, poor fit]",–
Cc1csc(N/N=C/c2ccccn2)n1,active: 3.55 µM,–
Cc1ccc(C(=O)O)cc1-c1ccc(C=C2C(=O)c3ccccc3C2=O)o1,–,inactive: 15.6%
COc1ccc(/C=C\C(=O)Oc2cccc(/C=N/NC(=O)Cc3ccc(OC)c(OC)c3)c2)cc1,active: 12.6 µM,–
COC(=O)c1ccc(C(=O)NC(=S)Nc2nc3c(s2)CCCC3)cc1,"inconclusive: 14.1 µM [activator, single point]",–
Cc1cccc(NC(=O)Nc2ccc3c(c2)N(C)C(=O)CS3)n1,–,inactive: 4.18%
COc1ccc2nc(-c3ccc(N)cc3)[nH]c2c1,"inconclusive: 0.631 µM [activator, full curve]",–
CCOCC(=O)Nc1nc2ccc(S(C)(=O)=O)cc2s1,"inconclusive: 0.0028 µM [activator, full curve]",–
Cc1nnc(NC(=O)CSc2ccccn2)s1,–,inactive: 6%
Cc1ccc(Cl)cc1N1CCN(C(=O)C2CCN(c3nnc(-n4cccc4)s3)CC2)CC1,–,inactive: -84.5%
O=C(NCc1ccco1)c1cnn2c(C(F)F)cc(-c3ccccc3)nc12,"inconclusive: 0.02 µM [activator, full curve, poor fit]",–
COc1ccc(Nc2nnc(SCC(=O)/C=C3/N(C)c4ccccc4C3(C)C)s2)cc1,–,inactive: -66%

SMILES,Potency,"activity change, positive = activation"
O=C(Nc1ccon1)c1cc2c(s1)CCCC2,active: 6.31 µM,–
Cc1ccc(-c2noc(C3CCCCC3)n2)cc1,–,inactive: 22.1%
CN(C)C(=O)c1ccc(-c2nc(NCc3cccs3)c3ccccc3n2)cc1,–,inactive: 20.1%
Nc1nc2c(ncn2[C@@H]2O[C@H](COP(=O)(O)OP(=O)(O)O)[C@@H](O)[C@H]2O)c(=O)[nH]1,"inconclusive: 14.1 µM [activator, single point]",–
CC(NC(=O)c1ccccc1)c1nc2ccccc2n1Cc1ccc(C#N)cc1 (centres undefined),"inconclusive: 5.62 µM [activator, partial curve, poor fit]",–
CCn1nc2cc(C(=O)NCC34CC5CC(CC(C5)C3)C4)ccc2c1OC,–,inactive: -23.7%
COc1cccc(Nc2nc(NCCO)c3ccccc3n2)c1,–,inactive: -23.5%
Oc1ccc(/C=N/Nc2nccnc2Cl)cc1,"inconclusive: 20 µM [activator, single point]",–
Cc1nc(C)c(-c2csc(Nc3cccnc3)n2)s1,"inconclusive: 11.2 µM [activator, partial curve]",–
Cc1ccc(NC(=O)Nc2ccc(C(=O)N3CCOCC3)cc2)cc1,–,inactive: 3.16%
CCc1nnc(NS(=O)(=O)c2ccc(NC(=S)NC(=O)c3ccc(OC)c(OC)c3)cc2)s1,"inconclusive: 0.0112 µM [activator, full curve, poor fit]",–
CCOC(=O)c1sc(NC(=O)c2ccncc2)nc1C,"inconclusive: 0.1 µM [activator, full curve, poor fit]",–
S=C(Nc1ccccc1)Nc1nccs1,"inconclusive: 12.6 µM [activator, full curve]",–
CC(C)CC(=O)NC(=S)Nc1ccc(S(=O)(=O)N2CCN(C)CC2)cc1,"inconclusive: 5.62 µM [activator, single point]",–
Cc1ccc(OCc2nnc(SCC(=O)c3cccc([N+](=O)[O-])c3)n2C)cc1,–,inactive: -2.89%
Cc1ccc(-c2nn3c(C)nnc3c3ccccc23)cc1S(=O)(=O)N(C)CCO,"inconclusive: 7.08 µM [activator, full curve, poor fit]",–
O=C(NCCN1Cc2ccccc2C1=O)c1cccs1,"inconclusive: 20 µM [activator, partial curve]",–
CCOc1ccccc1C1N(c2ccc(F)cc2)C(=O)C2CCCN21 (centres undefined),"inconclusive: 7.08 µM [activator, partial curve, poor fit]",–
Cc1ccc(SCC(=O)NC(=O)c2ccc(S(=O)(=O)N(C)C)cc2)cc1C,"inconclusive: 5.62 µM [activator, single point]",–
CCc1nnc(NC(=O)CSc2nnc(Cc3cc(=O)[nH]c(=O)[nH]3)n2-c2cccc(OC)c2)s1,"inconclusive: 0.0708 µM [activator, full curve, poor fit]",–
COc1cc(/C=C/c2noc(-c3ccccc3O)n2)cc(OC)c1OC,–,inactive: 12.7%
CCc1ccc(Nc2nnc(SCC(=O)Nc3sccc3C(N)=O)s2)cc1,"inconclusive: 17.8 µM [activator, single point]",–
Cc1cnc(C(=O)OCC(=O)NCc2ccccc2)cn1,–,inactive: -2.9%
Cc1ccc(NC(=O)NCCOCCn2c(=O)oc3ccccc32)cc1F,–,inactive: 1.38%
Cc1nc(NC(=S)NC(=O)c2cccs2)ccc1Br,"inconclusive: 11.2 µM [activator, single point]",–

# Source: PubChem BioAssay AID1458 (National Center for Advancing Translational Sciences (NCATS), 2008)
